According to publication PMC4964934:
No constants are given. Whether binding was seen depends on the method and setting. Binding seen in cells or lysates may run through a third protein. Some entries that bind do so weakly or less than the wild type. For part of these data: Sequences can lack the tags named with a protein.

How the values were obtained:
GFP-MLH1 = GFP-MLH1 (UniProt P40692); assay: co-IP; reciprocal direction: IP of GFP-Mlh1 or FLAG-UHRF1 from 293T nuclear lysate mixed with purified 6HIS-TF-UB hMBD4 mutants (500 µg each); MBD4 mutants detected by Western blot; only the binder purified
[1] = target: T1, FLAG-UHRF1, FLAG epitope-tagged human UHRF1 (human) (UniProt Q96T88); assay: as above
T1 sequence: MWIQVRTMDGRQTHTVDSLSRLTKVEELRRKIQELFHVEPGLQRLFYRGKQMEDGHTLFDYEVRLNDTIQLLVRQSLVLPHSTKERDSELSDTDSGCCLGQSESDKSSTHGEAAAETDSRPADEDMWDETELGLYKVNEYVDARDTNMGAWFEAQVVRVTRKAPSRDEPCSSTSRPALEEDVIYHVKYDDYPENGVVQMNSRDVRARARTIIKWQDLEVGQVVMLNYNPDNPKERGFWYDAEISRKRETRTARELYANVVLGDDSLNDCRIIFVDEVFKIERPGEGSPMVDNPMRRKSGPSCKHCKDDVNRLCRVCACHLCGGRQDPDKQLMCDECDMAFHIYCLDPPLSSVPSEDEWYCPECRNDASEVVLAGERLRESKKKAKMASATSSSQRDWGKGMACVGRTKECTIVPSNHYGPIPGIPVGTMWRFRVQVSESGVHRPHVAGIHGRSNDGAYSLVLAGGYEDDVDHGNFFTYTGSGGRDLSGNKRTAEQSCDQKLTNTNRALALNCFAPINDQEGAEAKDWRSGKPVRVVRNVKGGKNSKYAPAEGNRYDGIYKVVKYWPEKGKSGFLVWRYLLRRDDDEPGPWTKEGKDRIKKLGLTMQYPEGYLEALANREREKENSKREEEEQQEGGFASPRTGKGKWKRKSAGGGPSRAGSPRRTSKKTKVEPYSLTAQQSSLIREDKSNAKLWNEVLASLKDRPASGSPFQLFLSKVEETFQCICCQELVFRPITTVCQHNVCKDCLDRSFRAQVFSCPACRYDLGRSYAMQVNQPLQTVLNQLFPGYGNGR

[2] = target: GFP-mMBD4, GFP epitope-tagged mouse MBD4 (mouse) (UniProt Q9Z2D7); assay: co-IP; ectopic proteins in HEK293T; nuclear extract without MNase (no chromatin digestion); GFP beads (ChromoTek), 2 h at 4°C; Western blot
[3] = target: T1, FLAG-UHRF1, FLAG epitope-tagged human UHRF1 (human); assay: co-IP; ectopic proteins in HEK293T; MNase-treated nuclear extract (300 mM NaCl); anti-FLAG sepharose beads, 2 h at 4°C; Western blot
[4] = target: FLAG-hMBD4 (SF-TAP-hMBD4), human full-length MBD4 (human) (UniProt O95243); assay: as above

Substance | binding (GFP-MLH1) | binding [1] | binding [2] | other results
6HIS-TF-UB-hMBD4 mutant 3 (glycosylase domain and its known upstream interaction region, amino acid 408-580) (from UniProt O95243 408-580) (domain or fragment) | binds |  |  | 
GFP-mMBD4, GFP epitope-tagged mouse MBD4 (from UniProt Q9Z2D7 1-554) |  |  |  | binding [3]: binds
MCherry-USP7 (from UniProt Q93009 1-1102) |  |  | binds | binding [4]: binds

Second part, led by results:

binding (GFP-MLH1) | binding [1] | binding [2] | Substance | other results
binds | binds |  | 6HIS-TF-UB-hMBD4 mutant 2 (MBD and intervening region, amino acid 1-408) (from UniProt O95243 1-408) (domain or fragment) | 
binds | binds weakly |  | 6HIS-TF-UB-hMBD4 mutant 4 (intervening region and the downstream interaction region, 156-455) (from UniProt O95243 156-455) (domain or fragment) | 
 |  | no binding | FLAG-p75 (from UniProt O75475 1-530) | 
